Results: PMC4336329 (PLoS ONE, 2015)
Out of some 310,000 compounds screened, about 2,200 (0.71%) showed an effect of 50% or more. The effect is printed as a negative number. The list shows a part of the results.

target: human ether-à-go-go-related gene (hERG) potassium channel (human, UniProt Q12809); assay: primary screen, population patch clamp on CHO cells stably expressing hERG
Sequence (Q12809 whole entry, looked up): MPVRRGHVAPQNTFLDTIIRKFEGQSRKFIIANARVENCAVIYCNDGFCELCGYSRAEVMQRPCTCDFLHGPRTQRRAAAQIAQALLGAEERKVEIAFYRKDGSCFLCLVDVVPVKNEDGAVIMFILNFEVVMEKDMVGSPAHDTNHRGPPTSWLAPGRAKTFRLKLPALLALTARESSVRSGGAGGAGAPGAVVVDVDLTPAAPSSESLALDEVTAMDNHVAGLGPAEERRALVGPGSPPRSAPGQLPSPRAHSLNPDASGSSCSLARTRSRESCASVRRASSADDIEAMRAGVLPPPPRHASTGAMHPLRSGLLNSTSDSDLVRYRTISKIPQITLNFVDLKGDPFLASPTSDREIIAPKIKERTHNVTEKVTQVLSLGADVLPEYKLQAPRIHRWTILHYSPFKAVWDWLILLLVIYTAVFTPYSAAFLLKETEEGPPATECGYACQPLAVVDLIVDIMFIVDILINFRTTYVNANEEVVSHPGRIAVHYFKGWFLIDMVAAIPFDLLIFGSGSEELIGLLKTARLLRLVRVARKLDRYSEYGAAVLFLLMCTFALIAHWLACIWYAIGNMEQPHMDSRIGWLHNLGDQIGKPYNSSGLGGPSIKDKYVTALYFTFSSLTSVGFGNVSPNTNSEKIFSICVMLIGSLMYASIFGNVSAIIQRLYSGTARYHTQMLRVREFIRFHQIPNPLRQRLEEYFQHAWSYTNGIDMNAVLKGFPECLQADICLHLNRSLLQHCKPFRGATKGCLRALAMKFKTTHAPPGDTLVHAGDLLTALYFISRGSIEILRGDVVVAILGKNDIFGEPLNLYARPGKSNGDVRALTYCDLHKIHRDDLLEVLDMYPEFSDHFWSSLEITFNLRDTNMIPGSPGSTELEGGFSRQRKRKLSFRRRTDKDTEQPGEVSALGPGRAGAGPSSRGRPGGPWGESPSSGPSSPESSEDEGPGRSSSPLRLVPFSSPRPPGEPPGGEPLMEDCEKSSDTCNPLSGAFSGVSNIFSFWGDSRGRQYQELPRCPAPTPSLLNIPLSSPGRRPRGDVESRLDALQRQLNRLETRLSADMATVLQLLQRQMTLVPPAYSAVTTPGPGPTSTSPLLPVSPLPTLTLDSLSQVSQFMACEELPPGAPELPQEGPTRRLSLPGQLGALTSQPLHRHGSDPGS

| Structure (SMILES) | hERG current change (%, negative = inhibition) at 1uM |
| --- | --- |
| CCCC(CCC)C(=O)OC1C[C@H]2CC[C@@H](C1)[N+]2(C)C.[Br-] (some centres unmarked) | 7.8% |
| COc1ccc(-n2c(=O)c3ccccc3c3ccccc3c2=O)c(OC)c1 | 13.4% |
| COc1cc(/C=N/NC(=O)CCN2CCN(c3ccccc3)CC2)cc(OC)c1OC | 4.67% |
| COc1ccc(-c2cc(C(=O)NNC(=O)c3csc(N4CCOCC4)n3)c3ccccc3n2)cc1 | 23.5% |
| CCOC(=O)c1nnn(-c2nonc2N)c1CSc1nnc(N)s1 | 4.69% |
| CC1CCCCN1CC(=O)Nc1sc2c(c1C#N)CCC2 (centres unmarked) | 13.8% |
| NC(=O)c1ccsc1NC(=O)CS(=O)(=O)c1ccc(F)cc1 | -25.9% |
| CCN(C(=O)c1cc2c(=O)[nH]c3ccc(C)cc3c2s1)c1cccc(C)c1 | 14% |
| COc1ccccc1N(CC(=O)N1CCCCCC1)S(=O)(=O)c1ccc(C)cc1 | -4.1% |
| CCOC(=O)CCN(c1ccccc1)S(=O)(=O)c1ccc(-c2ccc(=O)[nH]n2)s1 | -6.83% |
| CN(C)CCCNC(=S)N(CCCN(C)C)Cc1cc2cc3c(cc2[nH]c1=O)OCO3 | 12.9% |
| COc1ccc(Cl)cc1NS(=O)(=O)c1cccc(C(=O)NCCCN2CCCC2=O)c1 | 10.8% |
| Cc1ccccc1NC(=O)c1ccc(S(=O)(=O)N(C)C)cc1 | 6.02% |
| Cc1ccc2ncnc(Nc3cccc([N+](=O)[O-])c3)c2c1 | -6.24% |
| CCCn1ncc(CN2CCN(Cc3ccsc3)C(CCO)C2)c1C (centres unmarked) | 5.77% |
| Cc1ccc(C(=O)N2CCCc3ccccc32)c(F)c1F | 19.1% |
| O=C(CNC(=S)N(Cc1ccc(F)cc1)C1CCCCC1)NCC1CCCO1 (centres unmarked) | 8.02% |
| COc1ccc(Cn2nnnc2CN2CCc3ccccc32)cc1 | 13.1% |
| Cc1cc(S(=O)(=O)NCCCN2CCOCC2)c(C)cc1Cl | -0.0197% |

| Structure (SMILES) | hERG current change (%, negative = inhibition) at 1uM |
| --- | --- |
| CN(C(=O)CC1C(=O)NCCN1Cc1c(F)cccc1Cl)C1CCOCC1 (centres unmarked) | 10.3% |
| COC(=O)c1ccc(NC(=O)CCS(=O)(=O)c2ccc3c(c2)NC(=O)C(C)S3)cc1 (centres unmarked) | 8.37% |
| COC(=O)c1cc(COc2ccc3c4c(c(=O)oc3c2)CCC4)c(C)o1 | 9.97% |
| O=C(CCCOc1ccccc1)Nc1cc(S(=O)(=O)N2CCOCC2)ccc1N1CCOCC1 | 1.7% |
| COc1ccc(NC(=O)c2ccc(-c3ccc(OC)cc3)s2)cc1 | 5.66% |
| CC(=O)c1cccc(CN2CCN(C(C)C)C(CCO)C2)c1 (centres unmarked) | 9.2% |
| COc1ccc2c3n(nc2c1)CCN=C3c1cc(Cl)c(N)c(Cl)c1 | 16.4% |
| CCOC(=O)c1c(/N=C/C2C(=O)CC(C)(C)CC2=O)sc(C)c1C | 6.57% |
| CCC(C)(C)NCC(=O)Nc1ccc(OC(F)(F)F)cc1 | -6.84% |
| CSc1ncccc1C(=O)OCC(=O)Nc1cc(C(F)(F)F)ccc1N1CCOCC1 | 6.99% |
| COc1cc(C(C(=O)NCC2CCCO2)N(C(=O)Cn2nnc3ccccc32)c2ccc(OC)c(OC)c2)ccc1O (centres unmarked) | 11.3% |
| Cl.O=C(O)c1ccc(CNCc2ccc(Cl)cc2Cl)cc1 | 16.4% |
| CCn1cc([N+](=O)[O-])c(C(=O)Nc2ccn(Cc3ccccc3)n2)n1 | 3.02% |
| O=C(N/N=C/c1ccc(Cl)cc1)C1CC12CCC2 (centres unmarked) | 7.16% |
| CCCCN(C)C(=O)CNC(=O)c1nn(-c2ccc(OC)cc2OC)c(=O)c2ccccc12 | 16% |
| CC1CCCCC12NC(=O)N(CC(=O)OCC(=O)N(C)C1CCCCC1)C2=O (centres unmarked) | 5.56% |
| Cc1cccc(C(=O)OC(C)CN2C(C)CCCC2C)c1.Cl (centres unmarked) | 9.78% |
| COc1ccc(S(=O)(=O)N(C)c2ccc(C(=O)NC3CC3)cc2)cc1 | 16% |
| FC(F)(F)c1ccccc1NC(=S)NN1CCOCC1 | 11.9% |

| Structure (SMILES) | hERG current change (%, negative = inhibition) at 1uM |
| --- | --- |
| O=[N+]([O-])c1cccc(-c2ccc3nnc(SCc4ccccn4)n3n2)c1 | 2.2% |
| COc1ccc(C(=O)CSc2n[nH]c(-c3ccco3)n2)cc1 | 10.7% |
| NS(=O)(=O)c1ccccc1NC(=S)Nc1ccccc1S(N)(=O)=O | 7.67% |
| COc1ccccc1C(=O)Nc1cccc2c1CCCC2 | 9.17% |
| CCOC(=O)c1ccccc1CN1C(=O)c2ccccc2S1(=O)=O | 11.4% |
| O=C(COc1ccc([N+](=O)[O-])cc1)Nc1cccc2nsnc12 | 1.62% |
| CCn1c(SCC(=O)Nc2nnc(C)s2)nc2c(c1=O)SC(C)C2 (centres unmarked) | 17.4% |
| O=C(NC1CCCC1)C(c1ccncc1)N(C(=O)Cc1cccs1)c1ccc(F)cc1 (centres unmarked) | 12.1% |
| CC(C)C(NS(=O)(=O)c1cccc2nsnc12)C(=O)NC1CCCCC1 (centres unmarked) | 18.4% |
| N#CC1(C#N)C2=C(CCCC2)NC(c2ccccc2)C1(C#N)C#N (centres unmarked) | 16.3% |
| CCn1c(CSc2nnc(-c3ccc4c(c3)OCO4)o2)nc2cc(S(=O)(=O)N(C)C)ccc21 | 2.97% |
| O=C(C1=NNC2C(=O)N(c3ccccc3)C(=O)C12)c1nc(Cl)ccc1Cl (centres unmarked) | 7.09% |
| COc1cc2ncnc(NCCc3ccccc3)c2cc1OC | 6.17% |
| O=C(c1ccccn1)N(c1ccccc1)C1(C(=O)NC2CCCCC2)CCCCC1 | -1.28% |
| O=C(CN1C(=O)NC2(CCc3ccccc32)C1=O)Nc1cccc(F)c1 (centres unmarked) | -0.7% |
| CC(=O)N1CCN(C(=O)CSc2nnc(C)n2-c2ccccc2)CC1 | 8.5% |
| CCOC(=O)C1=C(CSc2nccn2C)NC(=O)NC1c1ccc(OC)cc1 (centres unmarked) | 3.59% |
| COc1ccc(C(CNC(=O)COc2ccc(C)c(C)c2)N2CCCCC2)cc1 (centres unmarked) | 4.01% |
